Data as given in PMC12136788.
The list shows a part of the results.

T1: UNK ZnF1-3 (human, UniProt Q9C0B0 31-174)
T1 sequence: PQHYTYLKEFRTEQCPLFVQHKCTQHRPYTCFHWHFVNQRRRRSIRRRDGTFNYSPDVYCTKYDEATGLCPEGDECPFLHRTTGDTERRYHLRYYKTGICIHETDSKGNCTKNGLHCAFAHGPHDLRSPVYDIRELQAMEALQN

B1: chr7:7676484:7676485:-_ENSG00000106399_ENST00000223129|hu_hu|FALSE|FALSE (ssRNA)
RNA: GGGAGUUCUACAGUCCGACGAUCAUAUUGGAGUAGCAAUUCUUUAUAAAAGGACUUCGGUGAGAACUGUCAAUAUAUCAGUUCCAUCAAAAACUCUAGGUUGGAAUAUCUUAAAAACAGCAAAUUAAAUAUGAGAAAGCACAGCAACAGAGGAUUGAGCAUCA
B2: chr7:7679991:7679992:-_ENSG00000106399_ENST00000396682|hu_hu|hu_hu_hu_mus_False|28_48 (ssRNA)
RNA: GGGAGUUCUACAGUCCGACGAUCUGGGAUGAAUCUUUUCCAGCUUCCCCACGAAGCACACGGGCCGGUCGAUAUACUGUGGUAACAUGCCGGCGUUGACGCGCGCUCUGGGCAAGUGCAUUAUGUCCUCCAUGAUUCUGCCGCCAACAGAGGAUUGAGCAUCA
B3: chr18:35731848:35731849:+_ENSMUSG00000037236_ENSMUST00000166793|perfect_dup|motif|central (ssRNA)
RNA: GGGAGUUCUACAGUCCGACGAUCCAGUGCACUAUGAGCUCCUUGUUGAUUCAAUGAAGAACUCAUUCCAAGAUUCAUUAAACGGGCAAGGCGUGCAGUACCCUGGUUCAUCCUUCCAAGAGAUGCUGGCAUACUUAAAGACUGCAACAGAGGAUUGAGCAUCA
B4: chrX:102930994:102930995:-_ENSG00000123562_ENST00000441076|hu_hu|motif|central (ssRNA)
RNA: GGGAGUUCUACAGUCCGACGAUCAUAAGCCCUGUUAUACAUUAACGAUUUUAAAGAACAUCAAUUUUACAAGAAAAAGACGGAGAACAAAAAGUGUUUACAGAUACAGGACAAAAAUGGUGAGCUGUCUGUAGACGCUCACAGCAACAGAGGAUUGAGCAUCA
B5: chr2:202488911:202488912:-_ENSG00000155755_ENST00000286196|hu_mus|hu_hu_hu_mus_False|68_108 (ssRNA)
RNA: GGGAGUUCUACAGUCCGACGAUCAUUUAACAUUUUUUCAUAAUCUCCAGUAGCAUUUCAGCAUUAUUAAUCAAAAACUCAAUUGUAAAUACAUGUAUCUUAUAAAAAUACACUUAAAAACACGAGUGGGGAGCGCAGGCGCCACAACAGAGGAUUGAGCAUCA
B6: chr2:179515052:179515053:+_ENSMUSG00000000305_ENSMUST00000000314|mus_hu|mus_mus_mus_hu_False|1_88 (ssRNA)
RNA: GGGAGUUCUACAGUCCGACGAUCGCUGUCCCAUGCAGUCACCGUGAAGGCCACCUGCUCGGAGGGGACCUGCAGCUCCCGGGUGGCGAAGACUGUCCCAUCUGCCCCAACUUUGAAGUCCAUGCUGUUGGUCUCAUACUGCAUCAACAGAGGAUUGAGCAUCA
B7: chr11:119660697:119660698:+_ENSMUSG00000025583_ENSMUST00000147781|mus_mus|FALSE|FALSE (ssRNA)
RNA: GGGAGUUCUACAGUCCGACGAUCGCUUACUGGGGUGCAGUUAUAUGACCUCAUGAUUCUUUCUGCCAAUAAAAAAUUUCUAAACAAACUUGCCACGAGCAGGUCCUGUCGGAAAAGCUUUUGGAAGAGAUCCCGAGGGAGCACCAACAGAGGAUUGAGCAUCA
B8: chr12:70286429:70286430:+_ENSMUSG00000043998_ENSMUST00000060579|mus_mus|motif|central (ssRNA)
RNA: GGGAGUUCUACAGUCCGACGAUCACACUCCUGCUGCUUCAGUUUCCACAUCUUUUUGAAGACAUGGUAAAAGUCUGGGGCGGAGUAGUGGUCCUCUUCCAGGAAGAGUAUAAGGCCAGUGUAAUCUUGAAGAACUUUGACUCUCAACAGAGGAUUGAGCAUCA
B9: 66484257_66484377_196_5pUTR_ENSMUSG00000025326_ENSMUST00000107537|mouse|control|control (ssRNA)
RNA: GGGAGUUCUACAGUCCGACGAUCGAGAAGCAGAAGGAGGCGCCACCGUCAGCGACAGGUCGACGGAAGAGAAGCGUAACGAGGCGGUGAACAGCUGCGUGGCCCGGUGCGCGAGCGAGAGAGCGAGCGCAGGAGGGGCGACGACAACAGAGGAUUGAGCAUCA
B10: chr9:58044877:58044878:-_ENSMUSG00000051243_ENSMUST00000114144|mus_mus|FALSE|FALSE (ssRNA)
RNA: GGGAGUUCUACAGUCCGACGAUCCCCAGAAGGUGGGAAGGGGGUAUUAGCACCAGACCCAGAAAUGUCGCUGCUUUUUAAAACAACGAAAAUAAGAAAAUCAGUGCGCUGAGUUGAAAGGCCUACCAGGACCCCAGUUUGGCUCAACAGAGGAUUGAGCAUCA
B11: 5094200_5094320_2150_3pUTR_ENSMUSG00000020393_ENSMUST00000020662|mouse|control|control (ssRNA)
RNA: GGGAGUUCUACAGUCCGACGAUCCUACAGCCCCAGCUCUAGGCUACAGCCCCAGCUCUAGGCUACAGCCCCAGCUCUAGGCUACAGGCUUGGGCUGAGGACAGGAAGACAGGCUGAAUUCUGAUUCCACAGGAUUGGCAACUACAACAGAGGAUUGAGCAUCA
B12: chr2:55462594:55462595:+_ENSG00000143947_ENST00000402285|hu_mus|motif|central (ssRNA)
RNA: GGGAGUUCUACAGUCCGACGAUCUCCCAUGAAAACUCCAGCACCACAUUCAUCAGAAGGACACUCUCGACGAAGUCGGCGGAUUUUGCCAUUUUCAUCCACCUUAUAGUAUUUCAGCACAGCCAACUUAACCUUCUUCCUCUUCAACAGAGGAUUGAGCAUCA
B13: 54996473_54998144_359_CDS_ENSMUSG00000029777_ENSMUST00000003572|mouse|control|control (ssRNA)
RNA: GGGAGUUCUACAGUCCGACGAUCCUGAUCGUAGAAAAACCUCCUCUUCAACGUAUCUUCCAUUUUUGCUCUAUCUACGAUGUCAUCUUUGGGCUGCAAUGCCAGCUCCUUUGCUUCCAGAACCCUCUUCCGGGCCUUGAGCUCCAACAGAGGAUUGAGCAUCA
B14: chr1:2330915:2330916:+_ENSG00000157916_ENST00000443438|hu_hu|FALSE|FALSE (ssRNA)
RNA: GGGAGUUCUACAGUCCGACGAUCAGGACCGUCAUCUGAGUCUUCCAUUAAGGAAGGAUCCACUUUGGGAGAAAGAAAAGCUAUGAAAAGAUUUAGAUGGUAGAUCCCCAAGGCAUAGGUCACAAUGUACCAACCCUGCAGCAGCAACAGAGGAUUGAGCAUCA
B15: chr1:66462064:66462065:+_ENSMUSG00000015222_ENSMUST00000114013|mus_hu|FALSE|FALSE (ssRNA)
RNA: GGGAGUUCUACAGUCCGACGAUCGACAUCAGCUCUCUCAUCUGUGGCUAAAUCAGCCUCUGAAACAGCAGGUGGGCAAGGUAUUUCCACUGACAAUUUGACGGCAAUCUCAUCUUGAAUUAGAGAUGAUUCUGGAGAUGUUUCCAACAGAGGAUUGAGCAUCA
B16: chr3:139078181:139078182:-_ENSG00000184432_ENST00000507777|hu_hu|FALSE|FALSE (ssRNA)
RNA: GGGAGUUCUACAGUCCGACGAUCCUGACUGGGUAAGUAAGUUCGGGCCAAGAAGGCAGCUUCUGGCAGCCGUCCAGUUCUAAUUAAGAGCUCUAGGCAGGCAUCAACCUUGCCCUGUAAAAAGUAGCUCAUGAAUGCCACAUUCAACAGAGGAUUGAGCAUCA
B17: chr10:28884852:28884853:+_ENSG00000095787_ENST00000354911|hu_hu|motif|central (ssRNA)
RNA: GGGAGUUCUACAGUCCGACGAUCAGAUGCUCCAUUAGCAUCAAAUGAUUUCUUUGGCUGGUGAUCAGACUGUAGCGUAAAUGGACGGGAAGGAACAGUGCUUGGGGUAGCAGUUGGAUGAACCACUGGUUUGAUGGGGUGCUGCAACAGAGGAUUGAGCAUCA
B18: chr3:105756983:105756984:-_ENSMUSG00000000563_ENSMUST00000118209|mus_hu|FALSE|FALSE (ssRNA)
RNA: GGGAGUUCUACAGUCCGACGAUCAGCAAAGUCUGCAACAAAGGGACCAUAUUUUUUAAUUCCAUAGACCAUUACACCUAGUACUGAUAGGGCAGUGAAGGUCUCUGCGCUAAUCACAUAUAUUUCUUUGGAUAAAGCGUACAACAACAGAGGAUUGAGCAUCA
B19: chr7:56127271:56127272:+_ENSG00000146731_ENST00000540286|hu_hu|FALSE|FALSE (ssRNA)
RNA: GGGAGUUCUACAGUCCGACGAUCAUACUCAUAUACAAGUCCUGCAUGUCCCAAGCAGUCAGGACUUAGGUCGUCAAAAGAAUUCAGGGCUACCCCACCACAAGCAAGAGUCAGCCUCUCCAUAUUUCUCCUUUUAGCUCUGCGCAACAGAGGAUUGAGCAUCA
B20: chr8:74746221:74746222:+_ENSMUSG00000003039_ENSMUST00000003123|mus_mus|FALSE|FALSE (ssRNA)
RNA: GGGAGUUCUACAGUCCGACGAUCUUUAAUCAAGUCUCAGAAAACCUGGUCUCAGCAGAUUCACCAGCCAGGUGUAAAACAUUCUAGAAAACACGGAGGGACAAGACAAAACACUGUCAACCUGGCCUUCUGCCUUUUUGCACCCAACAGAGGAUUGAGCAUCA
B21: chr1:186330979:186330980:-_ENSG00000047410_ENST00000367478|hu_mus|FALSE|FALSE (ssRNA)
RNA: GGGAGUUCUACAGUCCGACGAUCGUAGAGAUUAGAGAGCUUUAUGUGAGCAUUUAACUCAUUGUGGAAUUUCUCUUCCAUACUGGCCUGCUGUUCUUUGGCCUCUUUUAAUUUUGUCAACAAAUCCUCUACAUGUUUCUGAAGCAACAGAGGAUUGAGCAUCA
B22: 62644853_62644973_1213_CDS_ENSMUSG00000032244_ENSMUST00000034775|mouse|control|control (ssRNA)
RNA: GGGAGUUCUACAGUCCGACGAUCGUUCCUACACUCAGUUCUGUUCCCAUAAGCAUGGAUGGGUGGGAGAACCUCUUUUUCAAGAAUGUUGUCACCAUCCUGAAAUCUCUCCAACAUAGCUAAAUAUAAAUAGUGGUAUGUCUUCAACAGAGGAUUGAGCAUCA

Biological target: T1, UNK ZnF1-3
Assay: nsRBNS (natural sequence RNA bind-n-seq); RBNS binding buffer (assumed for nsRBNS): 25 mM Tris pH 7.5, 150 mM KCl, 3 mM MgCl2, 0.01% Triton X-100, 500 ug/ml BSA, 20 U/ml SUPERase-In, 4 C; UNK is unkempt and MSI1 is Musashi-1; names of the RNAs are library labels; protein concentration not given here; high values mean tight binding

Row | Binder | binding signal
1 | B1 | 2.74 enrichment R
2 | B2 | 0.506 enrichment R
3 | B3 | 0.828 enrichment R
4 | B4 | 0.946 enrichment R
5 | B5 | 0.924 enrichment R
6 | B6 | 0.765 enrichment R
7 | B7 | 1.33 enrichment R
8 | B8 | 0.771 enrichment R
9 | B9 | 1.82 enrichment R
10 | B10 | 1.21 enrichment R
11 | B11 | 0.734 enrichment R
12 | B12 | 1.18 enrichment R
13 | B13 | 0.527 enrichment R
14 | B14 | 1.25 enrichment R
15 | B15 | 0.88 enrichment R
16 | B16 | 1.02 enrichment R
17 | B17 | 1.2 enrichment R
18 | B18 | 1.85 enrichment R
19 | B19 | 0.999 enrichment R
20 | B20 | 1.17 enrichment R
21 | B21 | 0.594 enrichment R
22 | B22 | 0.764 enrichment R
